In all, about 360,000 compounds went through this assay and about 7,500 (2.1%) were called active. This list was built around the results that the source calls inconclusive (neither active nor inactive); the mix of calls is not that of the screen. The call rests on the fitted dose curve; in most records, active means well fitted cell-killing curve with a large enough effect; inconclusive means small, poorly fitted or top-dose-only effect, or effect the other way, or another doubt; inactive means no such curve, though single readings can be large or run the other way. Potencies of inconclusive entries are left out as doubtful fits.
assay: qHTS for induction of synthetic lethality in tumor cells producing 2HG: qHTS for the HT-1080-IDH1KD cell line; conditions: HT-1080 IDH1 knockdown viability, ATP luminescence, 48 h; activity, negative = toxicity: at 46.1 µM (top of the series) unless noted;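 on activity, negative = toxicity: 0% = DMSO wells and -100% = cell-free medium wells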
Method in brief: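 Viability of IDH1-knockdown HT-1080 fibrosarcoma cells was assessed by CellTiter-Glo after 48 h at 37 °C with titrated compound; concentration-effect curves were classified by fit quality and response size.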
Potency means the concentration at half of the fitted maximal effect; tags describe the fitted curve by direction and shape.

Row | SMILES | Potency | activity, negative = toxicity
1 | C[C@H](CO)N1C[C@H](C)[C@H](CN(C)Cc2ccncc2)Oc2ccc(NC(=O)Nc3ccc(C(F)(F)F)cc3)cc2CC1=O | inconclusive [cytotoxic, single point] | –
2 | CC1(Cc2ccc(C(F)(F)F)o2)C(=O)Nc2ccc(-c3cccc(C(F)(F)F)c3)cc21 (stereo not drawn) | inconclusive [cytotoxic, single point] | –
3 | Fc1ccc(/C=C\c2nccc3c2[nH]c2ccccc23)cc1 | active: 23.1 µM | –
4 | Cc1cnc(NC(=O)c2nn(C)cc2[N+](=O)[O-])s1 | inconclusive [cytotoxic, full curve] | –
5 | CCOC(=O)c1cnc2c(-c3ccccc3)cnn2c1C | inconclusive [rising, partial curve, poor fit] | –
6 | COc1ccc(C2CC(c3ccccc3)=NN2S(=O)(=O)c2ccccc2)c(OC)c1 (stereo not drawn) | inactive | –
7 | CCCCN(C(=O)Cn1ncc(Cl)c(Cl)c1=O)c1c(N)n(CC(C)C)c(=O)[nH]c1=O | inconclusive [cytotoxic, single point] | –
8 | Cc1ccc(N2CCN(C(=O)c3cccs3)CC2)cc1C | inactive | –
9 | CCN1CCN(c2sc(S(C)(=O)=O)nc2S(=O)(=O)c2ccc(C)cc2)CC1 | inactive | –
10 | Cc1nn2c(N)c(-c3ccccc3)cnc2c1-c1ccc(Cl)cc1 | inconclusive [cytotoxic, single point] | –
11 | Cc1ccc(NC(=O)c2ncn(CCCN3CCN(c4ccccn4)CC3)n2)cc1C | inactive | –
12 | COc1cc2c(cc1OC)C(COc1ccc(F)cc1)N(C(=O)c1ccco1)CC2 (stereo not drawn) | inconclusive [cytotoxic, single point] | –
13 | Cn1cccc1Cc1nnc(SCC(=O)Nc2nc3ccccc3s2)n1CCc1ccccc1 | inconclusive [cytotoxic, single point] | –
14 | Cc1cccc(NC(=O)CSc2n[nH]c(-c3ccncc3)n2)c1C | inactive | –
15 | COc1cccc(-c2cnc3c(NC(C)=O)cc(-c4ccncc4)cn23)c1 | inconclusive [cytotoxic, single point] | –
16 | CCOC(=O)Cc1csc(NC(=O)c2cc3c(s2)CCCC3)n1 | inconclusive [cytotoxic, single point] | –
17 | CCc1ccc(C2c3[nH]c4ccccc4c3CCN2C(=O)CN2CCN(CC)CC2)cc1 (stereo not drawn) | inconclusive [cytotoxic, single point] | –
18 | CC(CN(C)C)CN1c2ccccc2Sc2ccccc21 (stereo not drawn) | inconclusive [cytotoxic, partial curve] | –
19 | Cc1ccc(C(O)(c2ccccc2)c2ccccc2C(C)N(C)C)c(C)c1 (stereo not drawn) | inconclusive [cytotoxic, single point] | –
20 | O=C(CN(C(=O)CNC(=O)c1ccco1)c1ccc(F)cc1)NC1CCCCC1 | inactive | –
21 | CCc1nc2c(OCc3ccc(C(F)(F)F)cc3)cccn2c1N(C)C(=O)CC(C)C | inconclusive [cytotoxic, single point] | –
22 | O=C(CSc1nc(-c2ccccc2)cs1)NCCN1C(=O)CSC1=O | inactive | –
23 | Cc1cc(Cl)ccc1OCc1cn2cccnc2n1 | inactive | –
24 | COc1ccc(NS(=O)(=O)c2cccc(-c3nnc4n3CCCCC4)c2)cc1 | inactive | –
25 | CCOc1ccc(N2C(=O)CC(Cc3ccccc3OC)C2=O)cc1 (stereo not drawn) | inactive | –

Row | SMILES | Potency | activity, negative = toxicity
26 | CC(C)(C)C(=O)N/C(N)=N/c1nc2ccccc2o1 | inconclusive [cytotoxic, single point] | –
27 | CCc1nc2ccc(C(=O)Nc3cccc(NS(C)(=O)=O)c3)cn2c1N(C)CCCc1ccccc1 | inconclusive [cytotoxic, single point] | –
28 | Cc1ccsc1/C=C/C1=Cc2c(sc(NC(=O)CSc3n[nH]c(N)n3)c2C#N)C(C)(C)C1 | active: 12.6 µM | –
29 | COc1ccc2c(C)cc(=O)oc2c1C | inactive | –
30 | Clc1ccccc1-c1cc2nc(NCCCn3ccnc3)ccn2n1 | inactive | –
31 | Cn1c(NCCCN2CCOCC2)nc2c1c(=O)n(Cc1ccc(Cl)c(Cl)c1)c(=O)n2C | inconclusive [cytotoxic, single point] | –
32 | CCOc1cc(Cl)c(S(=O)(=O)NCc2ccccn2)cc1Cl | inconclusive [rising, single point] | –
33 | c1ccc(-n2cc(CN3CCCC(CN4CCCC4)C3)c(-c3ccc4c(c3)OCO4)n2)cc1 (stereo not drawn) | inconclusive [cytotoxic, partial curve] | –
34 | Cc1ccc(C)c(C(=O)CN2C(=O)c3ccccc3S2(=O)=O)c1 | inactive | –
35 | CCCCCCc1cc2cc(C(=O)NCc3ccccc3)c(=N)oc2cc1O | inactive | –
36 | C/C(CC(=O)Nc1ccc(Cl)cc1Cl)=N\NC(N)=S | active: 7.94 µM | –
37 | O=C(NCCN1CCN(Cc2ccccc2)CC1)c1cc2c(=O)[nH]c3ccccc3c2s1 | inconclusive [cytotoxic, single point] | –
38 | COc1ccc([N+](=O)[O-])cc1C1NN=C(c2ccccc2O)S1 (stereo not drawn) | inconclusive [cytotoxic, single point] | –
39 | O=C(c1cc(COc2ccc3ncccc3c2)on1)N1CCCC1 | active: 14.6 µM | –
40 | O=C(c1ccc(Br)cc1)N(Cc1nc2ccccc2c(=O)[nH]1)C1CCCC1 | active: 23.1 µM | –
41 | COc1ccc(C)cc1S(=O)(=O)N(CC(=O)Nc1cccc([N+](=O)[O-])c1)c1cc(C)cc(C)c1 | – | inconclusive: -3.59% [cytotoxic]
42 | CN1N=C(N)c2cn(C3OC(COP(=O)(O)O)C(O)C3O)c3ncnc1c23 (stereo not drawn) | inconclusive [cytotoxic, partial curve] | –
43 | COc1ccccc1N(C)c1cc2c(c3c1ccn3C)C1CCC2O1 (stereo not drawn) | inconclusive [cytotoxic, single point] | –
44 | CCSc1nsc(NC(=O)Nc2cccc(F)c2)n1 | active: 6.51 µM | –
45 | C/C(Cl)=C\Cn1c(O)c(N=NC(N)=S)c2cc(Br)ccc21 | inconclusive [cytotoxic, single point] | –
46 | Cc1sc2ncnc(N3CCC(C(=O)Nc4nnc(CC(C)C)s4)CC3)c2c1C | inactive | –
47 | CCc1ccc(C(=O)COC(=O)C(Cc2ccccc2)NC(=O)C2CCC(C)CC2)cc1 (stereo not drawn) | inactive | –
48 | C=CCSc1nnc(N2C(=O)C(O)=C(C(=O)c3ccco3)C2c2ccccc2F)s1 (stereo not drawn) | inconclusive [cytotoxic, partial curve] | –
49 | Cc1ccc(NC(=O)CSc2nc3ccccc3c3nc4ccccc4n23)cc1 | active: 0.282 µM | –
50 | Cc1cc(C)c2c(N)c3cccc(C)c3nc2n1 | active: 9.2 µM | –

Row | SMILES | Potency | activity, negative = toxicity
51 | O=C(NCc1ccco1)/C(=C/C=C\c1ccccc1)NC(=O)c1ccc(Br)o1 | inconclusive [cytotoxic, single point] | –
52 | N/C(=N\OC(=O)c1ccc2ccccc2c1)c1ccccn1 | inconclusive [cytotoxic, single point] | –
53 | COC(=O)c1ccc(C(=O)NC2CCCc3c2cnn3-c2ccc(C)c(C)c2)cc1 (stereo not drawn) | active: 23.1 µM | –
54 | CN(C)c1ccc(/C=N/NC(=O)c2ccccn2)cc1 | inconclusive [cytotoxic, partial curve, poor fit] | –
55 | Cn1nccc1-c1ccc(C(=O)NCc2ccco2)c2occc12 | inactive | –
56 | O=C(NCCCN1CCOCC1)C1Cc2c(ccc3ccccc23)O1 (stereo not drawn) | inactive | –
57 | CCc1ccc(-c2cc(C)no2)cc1S(=O)(=O)N1CCN(c2ccc(OC)cc2)CC1 | – | inconclusive: -31.8% [cytotoxic]
58 | Cc1ccc(S(=O)(=O)NCCC(=O)NCCN2CCCCCC2)cc1 | – | inconclusive: 33%
59 | CCn1c(SCC(=O)N2CCCc3ccccc32)nnc1-c1c[nH]c2ccccc12 | inactive | –
60 | Cc1ccccc1C(=O)Nc1cccc(-c2ccc(N3CCOCC3)nn2)c1 | inactive | –
61 | CCOC(=O)c1c(C)c(C(=O)Nc2ccc3c(c2)OCCO3)c(C)n1C | inconclusive [cytotoxic, single point] | –
62 | C#CCSc1nnc(-c2cccc3ccccc23)o1 | inconclusive [cytotoxic, single point] | –
63 | COc1ccc(CCNC(=S)NCc2ccc(Cl)c(Cl)c2)cc1OC | inconclusive [cytotoxic, single point] | –
64 | Cc1cccc(/C=N/NC(=O)Cc2ccc(Cl)cc2)c1O | inconclusive [cytotoxic, partial curve] | –
65 | Cc1cc(N2CCN(c3nc4ccccc4s3)CC2)n2ncnc2n1 | inconclusive [cytotoxic, single point] | –
66 | O=C(Nc1ccccc1)C(=O)Nc1ccc2c(c1)N(C(=O)C1CC1)CCC2 | inconclusive [cytotoxic, single point] | –
67 | O=C(NC1CC1)c1ccc2nc([C@@H]3O[C@H](CO)[C@H](O)[C@H](O)[C@H]3O)[nH]c2c1 | inconclusive [cytotoxic, single point] | –
68 | S=c1nc(C2CCCCC2)[nH][nH]1 | active: 6.31 µM | –
69 | Cc1ccc(S(=O)(=O)c2nc(S(=O)(=O)c3ccc(C)cc3)c(N3CCN(CCO)CC3)s2)cc1 | inconclusive [cytotoxic, single point] | –
70 | Clc1ccccc1CN1CCC(Cc2ccccc2)CC1 | inactive | –
71 | O=C1c2ccccc2C(Nc2ccc(S(=O)(=O)N3CCOCC3)cc2)N1c1cccnc1 (stereo not drawn) | inactive | –
72 | Fc1ccc(CNC(=S)NCc2cccc(Cl)c2)cc1 | inconclusive [cytotoxic, single point] | –
73 | COc1ccc(Br)cc1/C=N/NC(=O)CNC(=O)/C=C/c1ccccc1 | inconclusive [cytotoxic, single point] | –

From PubChem BioAssay AID686971 (National Center for Advancing Translational Sciences (NCATS), 2013)
